In publication PMC5314374 one finds binding data, which are given here for one molecule.

Holding throughout (assay): co-IP; GFP-TRAP beads on lysates of S. cerevisiae gpd1 cells (Fig. 6A: pex13/gpd1 cells) co-expressing the two tagged proteins; cells grown on NaCl-containing medium (1 M in the legends, 0.8 M in the methods); lysis buffer 20 mM HEPES, 100 mM KAc, 5 mM MgAc pH 7.5; beads 1 h at 4 °C; immunoblot
For orientation: Immunoblotting shows a protein as a band on a membrane.

Assay [1] addresses T1, Glycerol-3-phosphate dehydrogenase 1 (Gpd1), tagged with GFP or HA at the carboxy-terminus (S. cerevisiae) (UniProt Q00055).
T1 sequence: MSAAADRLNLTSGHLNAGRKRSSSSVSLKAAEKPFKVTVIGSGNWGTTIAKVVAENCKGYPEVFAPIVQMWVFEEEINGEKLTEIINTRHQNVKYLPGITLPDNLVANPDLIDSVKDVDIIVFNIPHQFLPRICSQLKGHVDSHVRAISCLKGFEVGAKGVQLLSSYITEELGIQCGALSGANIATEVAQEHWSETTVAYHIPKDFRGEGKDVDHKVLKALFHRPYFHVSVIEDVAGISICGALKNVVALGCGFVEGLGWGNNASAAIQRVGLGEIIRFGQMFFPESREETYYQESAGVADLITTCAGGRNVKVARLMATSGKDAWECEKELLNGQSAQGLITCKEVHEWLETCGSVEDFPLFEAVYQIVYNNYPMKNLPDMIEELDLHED

Assay [2] addresses T2, Gpd1-GFP-PTS1 (S. cerevisiae) (UniProt Q00055).
T2 sequence: T1 sequence

In assay [3] the target is T3, Gpd1R270E-GFP (S. cerevisiae) (UniProt Q00055).
T3 sequence: T1 sequence with R270E

The target of assay [4] is T4, ΔN-Gpd1-GFP-PTS1 (S. cerevisiae) (UniProt Q00055).
T4 sequence: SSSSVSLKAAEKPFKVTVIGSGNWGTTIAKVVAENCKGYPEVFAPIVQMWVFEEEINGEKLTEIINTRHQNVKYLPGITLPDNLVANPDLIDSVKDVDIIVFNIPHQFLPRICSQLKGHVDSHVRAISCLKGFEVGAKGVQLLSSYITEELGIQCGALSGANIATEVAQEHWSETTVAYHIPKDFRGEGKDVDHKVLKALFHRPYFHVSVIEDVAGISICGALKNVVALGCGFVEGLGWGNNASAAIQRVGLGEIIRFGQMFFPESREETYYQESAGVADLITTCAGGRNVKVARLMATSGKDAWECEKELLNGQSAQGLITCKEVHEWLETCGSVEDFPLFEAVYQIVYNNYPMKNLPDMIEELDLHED

Residue numbers refer to the chain shown, from its start. These are yes or no findings as the source states them, for the method shown. In cells and extracts the contact can be indirect. Some binding calls cover weakened binding; strength is not graded here. Tags and fused reporters may be left off the sequences shown.

B1: Pyrazinamidase/Nictonamidase I (Pnc1), TAP-tagged in the genome (protein, UniProt P53184 1-216)
chain: MKTLIVVDMQNDFISPLGSLTVPKGEELINPISDLMQDADRDWHRIVVTRDWHPSRHISFAKNHKDKEPYSTYTYHSPRPGDDSTQEGILWPVHCVKNTWGSQLVDQIMDQVVTKHIKIVDKGFLTDREYYSAFHDIWNFHKTDMNKYLEKHHTDEVYIVGVALEYCVKATAISAAELGYKTTVLLDYTRPISDDPEVINKVKEELKAHNINVVDK
B1: the binding result in assay [1] is on record as “binds”; in assay [2], “binds”; in assay [3], “no binding”; in assay [4] it was “binds”.
